# Out of some 50,000 compounds screened, about 800 (1.6%) showed an effect of 50% or more. The list shows a part of the results.
# Target: Bcl-2-like protein 10 (Homo sapiens) (UniProt Q9HD36)
# Assay: TR3 peptide-Bcl-B binding displacers, biochemical primary FP assay, phenotype converters (AID 1240);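 also: 0% = Bcl-B with tracer peptide and DMSO and 100% = tracer peptide lacking Bcl-B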
# Settings: GST-Bcl-B / FITC-TR3 peptide fluorescence polarization; stronger effect = higher value; compound at 3.75 mg/L
# Chain of UniProt Q9HD36 (Q9HD36 whole entry, looked up): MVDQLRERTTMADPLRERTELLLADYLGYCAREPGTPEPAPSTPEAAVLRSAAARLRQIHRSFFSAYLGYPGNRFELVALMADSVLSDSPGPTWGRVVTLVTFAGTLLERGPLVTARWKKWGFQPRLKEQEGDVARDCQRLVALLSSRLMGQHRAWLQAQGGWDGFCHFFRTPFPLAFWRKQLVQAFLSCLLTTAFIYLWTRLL
row,SMILES,displacement [%]
1,Cc1ccc(C(=O)CC(O)(c2ccccc2)C(F)(F)F)cc1 (stereo unspecified),13.1
2,Cc1c(N2C(=O)/C(=C3/C(=O)N(CC(N)=O)c4ccccc43)SC2=S)c(=O)n(-c2ccccc2)n1C,-11.3
3,Cc1nc(-c2cccc(NC(=O)c3cccnc3)c2)cs1,-2.2
4,COc1ccc2c(c1)CC/C2=N\OC(=O)c1cccc2ccccc12,9.4
5,COc1ccccc1CNC(=O)c1cccc(N(C)C)c1,2.6
6,CCOC(=O)C(CCOc1cc(C)cc(C)c1C)C(=O)OCC,13.1
7,CCOC(=O)c1c(C)oc2cc(Br)c(O)c(C=O)c12,14.9
8,Cc1ccc(S(=O)(=O)N2CCCC2)cc1[N+](=O)[O-],-9.3
9,CCOc1cc(/C=C2\C(=O)NC(=O)N(c3ccc(Br)c(C)c3)C2=O)ccc1OC,41.5
10,O=C(NCc1cccnc1)/C(=C/c1cccc(Oc2ccccc2)c1)NC(=O)c1ccccc1,9
11,O=C(N/N=C/c1ccccn1)c1cccc([N+](=O)[O-])c1,0
12,CCN(C(=O)c1ccc(Cl)c([N+](=O)[O-])c1)c1ccccc1C,-9
13,CN(C)Cc1c(O)ccc2c(=O)c(-c3ccccc3)coc12,1.4
14,O=C(O)CSCC(NC(=S)Nc1ccccc1)C(=O)O (stereo unspecified),-17.6
15,CC(=O)Nc1ccc(S(=O)(=O)NC(c2ccccc2)c2ccccc2)cc1,-0.9
16,N#CC1=C(N)Oc2c(c(=O)oc3ccccc23)C12C(=O)Nc1ccc(Br)cc12 (stereo unspecified),2.7
17,OCCNC1CCCc2c1[nH]c1ccc(-c3ccccc3)cc21 (stereo unspecified),12.4
18,CCOC(=O)c1c(C)nc(C)nc1NC(=O)c1ccccc1,-5.5
19,COc1ccc(N(CC(=O)N2CCCC2)S(C)(=O)=O)cc1,7.8
20,C=C1c2ccc(C)cc2NC(=O)N1c1cccc(Cl)c1,12.9
21,CCOc1ccc(N/C(N)=N\c2nc(C)cc(C)n2)cc1,1.1
22,O=C(Nc1ccccc1C(=O)NCCO)c1ccccc1Cl,-7.4
23,COCCCNC(=O)CN(c1ccc(C)cc1)S(=O)(=O)c1ccc(SC)cc1,8.4
24,c1ccc(OCc2nc(-c3cccnc3)no2)cc1,5.8

row,SMILES,displacement [%]
1,COc1ccccc1NC(=O)c1cc(I)ccc1Cl,9.3
2,CCOc1cc(C2Nc3ccccc3C(=O)N2Cc2ccco2)ccc1OCc1ccccc1Cl (stereo unspecified),12.4
3,COc1cc(NC(=O)COc2cc(C)c(Cl)c(C)c2)cc(OC)c1,-1.6
4,Cc1nc(-c2ccccc2)nc(N/N=C/c2ccncc2)c1C,-5.8
5,N#Cc1cc([N+](=O)[O-])cnc1Sc1ccccc1,14.5
6,CSCCC(C(=O)O)N1C(=O)/C(=C\c2ccc(-c3ccc([N+](=O)[O-])cc3)o2)SC1=S (stereo unspecified),-97.4
7,COc1ccc(OC)c(CN2CCN(C(=O)c3ccc(OC)c(OC)c3)CC2)c1,-6.3
8,COCCNS(=O)(=O)c1ccc(OC)c(Br)c1,-2.2
9,COC(=O)CSc1nc(N)c2c3c(sc2n1)CCC3,-4.3
10,CC(C)Oc1ccccc1C1Nc2ccccc2NC2=C1C(=O)CC(c1ccc(Cl)cc1)C2 (stereo unspecified),-2.8
11,O=C(CSc1nc(-c2ccccc2)c(-c2ccccc2)o1)Nc1ccccc1,-4.2
12,Cc1cc2ncn(C(=O)N3CCOCC3)c2cc1C,1.4
13,CCOC(=O)c1ccc(NC(=O)c2ccc(Cl)cc2Cl)cc1,-7.8
14,O=C(NC(=S)Nc1ccc(Cl)cc1Cl)c1ccco1,14.1
15,Cc1ccc(S(=O)(=O)N/N=C/c2ccccc2C(F)(F)F)cc1,-8.8
16,O=C(Nc1ccc(F)cc1)Nc1cccc2cccnc12,5.9
17,COC(=O)c1ccc(N2C(=O)c3ccc4c5c(ccc(c35)C2=O)C(=O)N(c2ccc(C(=O)OC)cc2)C4=O)cc1,11.6
18,O=S1(=O)N=C(OCc2ccccc2)c2ccccc21,-4.7
19,O=C(NCCCN1CCOCC1)c1ccc(F)cc1,1.7
20,Fc1cccc(Cl)c1-c1nnc2ccc(C(F)(F)F)cn12,-5
21,COC(=O)c1cc(N=NC2=C(O)CC(C)(C)CC2=O)cc(C(=O)OC)c1,-7.3
22,CCOc1ccc(C(=O)Nc2ccccc2OC)cc1[N+](=O)[O-],-1.9
23,COc1ccc(/C=C2/SC(=O)N(CC(=O)Nc3cc(C)on3)C2=O)cc1OC,12.8
24,Cc1oc(C(=O)O)cc1CSCc1ccoc1C(=O)O,0.6

row,SMILES,displacement [%]
1,C/C=C/C(=O)N1c2ccc(C)cc2-c2c(ssc2=S)C1(C)C,3.9
2,CCOc1ccc(C(=O)N2CCN(c3ccccc3)CC2)cc1OCC,-0.6
3,CCc1ccc(NC(=O)C2CCCCC2C(=O)O)cc1 (stereo unspecified),-5.7
4,Cc1ccc(C)c(NC(=O)CSc2nnc(C)s2)c1,0.8
5,COc1ccc(OCC(=O)Nc2ccc(NC(=O)c3ccco3)c(OC)c2)cc1,17.1
6,Cc1cccc(NC(=O)/C(=C\c2ccccc2Cl)NC(=O)c2ccccc2)c1,3.5
7,O=C(CN(c1ccccc1)S(=O)(=O)c1ccccc1[N+](=O)[O-])N1CCCCC1,-2.3
8,COc1ccc(N(CC(=O)Nc2ccccc2Br)S(=O)(=O)c2ccccc2)cc1,11.2
9,N#Cc1c(NC(=O)CO/N=C/c2ccccc2)sc2c1CCCC2,3.7
10,Cc1ccnc(NS(=O)(=O)c2ccc(NS(=O)(=O)c3ccc([N+](=O)[O-])cc3)cc2)n1,-11
11,O=C(Nc1ccccc1)c1ccccc1O,-7.2
12,COc1ccc(/C=C2\SC(=S)N(CCCC(=O)Nc3c(C)n(C)n(-c4ccccc4)c3=O)C2=O)cc1,120
13,O=C(CCC(NC(=O)OCc1ccccc1)C(=O)OCc1ccccc1)Oc1ccc([N+](=O)[O-])cc1 (stereo unspecified),9.1
14,Cc1ccc(NC(=O)c2ccc(-c3cccc(Cl)c3)o2)c([N+](=O)[O-])c1,11.6
15,NS(=O)(=O)c1ccc(NC(=O)c2ccccc2[N+](=O)[O-])cc1,8.4
16,Cc1sc2nc(SCC(=O)N3CCN(CCO)CC3)[nH]c(=O)c2c1C,-10.4
17,COc1ccc(N2CCSC2C(=O)c2ccccc2)cc1 (stereo unspecified),9.2
18,COc1cccc(OC)c1C(=O)Nc1ccccc1I,13.2
19,O=C(O)CCC(=O)Nc1ccc(NC(=O)c2ccc(Cl)cc2Cl)c(Cl)c1,13.8
20,CC(C)CC(=O)N1CCN(Cc2ccncc2)CC1,-5.8
21,CCCCOC(=O)c1ccc(NC(C)=O)cc1,15.2
22,Cc1[nH]c2ccc(S(N)(=O)=O)cc2c1C,-3.4
23,Cc1cccc(OCC(=O)O/N=C(\N)Cc2ccc(Cl)cc2)c1,6.6

# Reference: PubChem BioAssay AID1240 (Sanford-Burnham Center for Chemical Genomics, 2008)
